Reference: patent US10166279B2, “Vaccine” (Bergen Teknologioverføring AS, priority 2013, dated 2019)
Part of at least one peptide drawing is inferred or uncertain, most often the ends. Peptide text beside a SMILES is read from it.

What follows are compounds tested on Protein-A purified rabbit anti-STa antisera (assay: Competitive STh ELISA (antigenicity) of culture filtrates). Details: relative to native STh; culture filtrate; competitive STh ELISA.
Type: binding

SMILES	Antigenicity
CC(C)C[C@@H]1NC(=O)[C@H](CCC(=O)O)NC(=O)[C@@H]2CSSC[C@@H]3NC(=O)[C@H](CCC(=O)O)NC(=O)[C@@H]4CCCN4C(=O)[C@H](CC(N)=O)NC(=O)[C@H](CSSC[C@H](NC(=O)[C@H](Cc4ccc(O)cc4)NC(=O)[C@H](CC(N)=O)NC(=O)[C@H](CO)NC(=O)[C@H](CO)NC(=O)[C@@H](N)CC(N)=O)C(=O)N2)NC(=O)[C@H](CSSC[C@@H](C(=O)N[C@@H](Cc2ccc(O)cc2)C(=O)O)NC(=O)CNC(=O)[C@H]([C@@H](C)O)NC3=O)NC1=O [Mutant A14E] (HELM PEPTIDE1{N.S.S.N.Y.C.C.E.L.C.C.N.P.E.C.T.G.C.Y}$PEPTIDE1,PEPTIDE1,6:R3-11:R3|PEPTIDE1,PEPTIDE1,7:R3-15:R3|PEPTIDE1,PEPTIDE1,10:R3-18:R3$$$V2.0)	0.2700
CC(C)C[C@@H]1NC(=O)[C@H](CCC(=O)O)NC(=O)[C@@H]2CSSC[C@@H]3NC(=O)[C@H](Cc4c[nH]cn4)NC(=O)[C@@H]4CCCN4C(=O)[C@H](CC(N)=O)NC(=O)[C@H](CSSC[C@H](NC(=O)[C@H](Cc4ccc(O)cc4)NC(=O)[C@H](CC(N)=O)NC(=O)[C@H](CO)NC(=O)[C@H](CO)NC(=O)[C@@H](N)CC(N)=O)C(=O)N2)NC(=O)[C@H](CSSC[C@@H](C(=O)N[C@@H](Cc2ccc(O)cc2)C(=O)O)NC(=O)CNC(=O)[C@H]([C@@H](C)O)NC3=O)NC1=O [Mutant A14H] (HELM PEPTIDE1{N.S.S.N.Y.C.C.E.L.C.C.N.P.H.C.T.G.C.Y}$PEPTIDE1,PEPTIDE1,6:R3-11:R3|PEPTIDE1,PEPTIDE1,7:R3-15:R3|PEPTIDE1,PEPTIDE1,10:R3-18:R3$$$V2.0)	0.6911
CC[C@H](C)[C@@H]1NC(=O)[C@@H]2CCCN2C(=O)[C@H](CC(N)=O)NC(=O)[C@@H]2CSSC[C@H](NC(=O)[C@H](Cc3ccc(O)cc3)NC(=O)[C@H](CC(N)=O)NC(=O)[C@H](CO)NC(=O)[C@H](CO)NC(=O)[C@@H](N)CC(N)=O)C(=O)N[C@H]3CSSC[C@H](NC1=O)C(=O)N[C@@H]([C@@H](C)O)C(=O)NCC(=O)N[C@H](C(=O)N[C@@H](Cc1ccc(O)cc1)C(=O)O)CSSC[C@H](NC(=O)[C@H](CC(C)C)NC(=O)[C@H](CCC(=O)O)NC3=O)C(=O)N2 [Mutant A14I] (HELM PEPTIDE1{N.S.S.N.Y.C.C.E.L.C.C.N.P.I.C.T.G.C.Y}$PEPTIDE1,PEPTIDE1,6:R3-11:R3|PEPTIDE1,PEPTIDE1,7:R3-15:R3|PEPTIDE1,PEPTIDE1,10:R3-18:R3$$$V2.0)	0.1645
CC(C)C[C@@H]1NC(=O)[C@H](CCC(=O)O)NC(=O)[C@@H]2CSSC[C@@H]3NC(=O)[C@H](CCC(N)=O)NC(=O)[C@@H]4CCCN4C(=O)[C@H](CC(N)=O)NC(=O)[C@H](CSSC[C@H](NC(=O)[C@H](Cc4ccc(O)cc4)NC(=O)[C@H](CC(N)=O)NC(=O)[C@H](CO)NC(=O)[C@H](CO)NC(=O)[C@@H](N)CC(N)=O)C(=O)N2)NC(=O)[C@H](CSSC[C@@H](C(=O)N[C@@H](Cc2ccc(O)cc2)C(=O)O)NC(=O)CNC(=O)[C@H]([C@@H](C)O)NC3=O)NC1=O [Mutant A14Q] (HELM PEPTIDE1{N.S.S.N.Y.C.C.E.L.C.C.N.P.Q.C.T.G.C.Y}$PEPTIDE1,PEPTIDE1,6:R3-11:R3|PEPTIDE1,PEPTIDE1,7:R3-15:R3|PEPTIDE1,PEPTIDE1,10:R3-18:R3$$$V2.0)	0.5616
CC(C)C[C@@H]1NC(=O)[C@H](CCC(=O)O)NC(=O)[C@@H]2CSSC[C@@H]3NC(=O)[C@H](CCCNC(=N)N)NC(=O)[C@@H]4CCCN4C(=O)[C@H](CC(N)=O)NC(=O)[C@H](CSSC[C@H](NC(=O)[C@H](Cc4ccc(O)cc4)NC(=O)[C@H](CC(N)=O)NC(=O)[C@H](CO)NC(=O)[C@H](CO)NC(=O)[C@@H](N)CC(N)=O)C(=O)N2)NC(=O)[C@H](CSSC[C@@H](C(=O)N[C@@H](Cc2ccc(O)cc2)C(=O)O)NC(=O)CNC(=O)[C@H]([C@@H](C)O)NC3=O)NC1=O [Mutant A14R] (HELM PEPTIDE1{N.S.S.N.Y.C.C.E.L.C.C.N.P.R.C.T.G.C.Y}$PEPTIDE1,PEPTIDE1,6:R3-11:R3|PEPTIDE1,PEPTIDE1,7:R3-15:R3|PEPTIDE1,PEPTIDE1,10:R3-18:R3$$$V2.0)	0.5564
CC(C)C[C@@H]1NC(=O)[C@H](CCC(=O)O)NC(=O)[C@@H]2CSSC[C@@H]3NC(=O)[C@H]([C@@H](C)O)NC(=O)[C@@H]4CCCN4C(=O)[C@H](CC(N)=O)NC(=O)[C@H](CSSC[C@H](NC(=O)[C@H](Cc4ccc(O)cc4)NC(=O)[C@H](CC(N)=O)NC(=O)[C@H](CO)NC(=O)[C@H](CO)NC(=O)[C@@H](N)CC(N)=O)C(=O)N2)NC(=O)[C@H](CSSC[C@@H](C(=O)N[C@@H](Cc2ccc(O)cc2)C(=O)O)NC(=O)CNC(=O)[C@H]([C@@H](C)O)NC3=O)NC1=O [Mutant A14T] (HELM PEPTIDE1{N.S.S.N.Y.C.C.E.L.C.C.N.P.T.C.T.G.C.Y}$PEPTIDE1,PEPTIDE1,6:R3-11:R3|PEPTIDE1,PEPTIDE1,7:R3-15:R3|PEPTIDE1,PEPTIDE1,10:R3-18:R3$$$V2.0)	0.4168
CC(C)C[C@@H]1NC(=O)[C@H](CCCNC(=N)N)NC(=O)[C@@H]2CSSC[C@@H]3NC(=O)[C@H](C)NC(=O)[C@@H]4CCCN4C(=O)[C@H](CC(N)=O)NC(=O)[C@H](CSSC[C@H](NC(=O)[C@H](Cc4ccc(O)cc4)NC(=O)[C@H](CC(N)=O)NC(=O)[C@H](CO)NC(=O)[C@H](CO)NC(=O)[C@@H](N)CC(N)=O)C(=O)N2)NC(=O)[C@H](CSSC[C@@H](C(=O)N[C@@H](Cc2ccc(O)cc2)C(=O)O)NC(=O)CNC(=O)[C@H]([C@@H](C)O)NC3=O)NC1=O [Mutant E08R] (HELM PEPTIDE1{N.S.S.N.Y.C.C.R.L.C.C.N.P.A.C.T.G.C.Y}$PEPTIDE1,PEPTIDE1,6:R3-11:R3|PEPTIDE1,PEPTIDE1,7:R3-15:R3|PEPTIDE1,PEPTIDE1,10:R3-18:R3$$$V2.0)	0.0244
CC(C)C[C@@H]1NC(=O)[C@H](CCC(=O)O)NC(=O)[C@@H]2CSSC[C@@H]3NC(=O)[C@H](C)NC(=O)[C@@H]4CCCN4C(=O)[C@H](CC(N)=O)NC(=O)[C@H](CSSC[C@H](NC(=O)[C@H](Cc4ccc(O)cc4)NC(=O)[C@H](CC(N)=O)NC(=O)[C@H](CO)NC(=O)[C@H](CO)NC(=O)[C@@H](N)CC(N)=O)C(=O)N2)NC(=O)[C@H](CSSC[C@@H](C(=O)N[C@@H](Cc2ccc(O)cc2)C(=O)O)NC(=O)[C@H](Cc2ccc(O)cc2)NC(=O)[C@H]([C@@H](C)O)NC3=O)NC1=O [Mutant G17Y] (HELM PEPTIDE1{N.S.S.N.Y.C.C.E.L.C.C.N.P.A.C.T.Y.C.Y}$PEPTIDE1,PEPTIDE1,6:R3-11:R3|PEPTIDE1,PEPTIDE1,7:R3-15:R3|PEPTIDE1,PEPTIDE1,10:R3-18:R3$$$V2.0)	0.0329
C[C@@H]1NC(=O)[C@@H]2CCCN2C(=O)[C@H](CC(N)=O)NC(=O)[C@@H]2CSSC[C@H](NC(=O)[C@H](Cc3ccc(O)cc3)NC(=O)[C@H](CC(N)=O)NC(=O)[C@H](CO)NC(=O)[C@H](CO)NC(=O)[C@@H](N)CC(N)=O)C(=O)N[C@H]3CSSC[C@H](NC1=O)C(=O)N[C@@H]([C@@H](C)O)C(=O)NCC(=O)N[C@H](C(=O)N[C@@H](Cc1ccc(O)cc1)C(=O)O)CSSC[C@H](NC(=O)CNC(=O)[C@H](CCC(=O)O)NC3=O)C(=O)N2 [Mutant L09G] (HELM PEPTIDE1{N.S.S.N.Y.C.C.E.G.C.C.N.P.A.C.T.G.C.Y}$PEPTIDE1,PEPTIDE1,6:R3-11:R3|PEPTIDE1,PEPTIDE1,7:R3-15:R3|PEPTIDE1,PEPTIDE1,10:R3-18:R3$$$V2.0)	0.0403
